Measured values published in the supplement of paper PMC11876631.
± gives the standard deviation of the averaged measurements. Laboratory Escherichia coli strains with one amino-acid change in an essential protein, pooled on minimal glucose agar with carbenicillin or gentamicin at twice the control MIC (plus kanamycin and chloramphenicol for the plasmids), 48 h. Fold change of barcode share against drug-free plates; higher = less susceptible. Active = above 20 in both replicates (the paper's putatively resistant). '<' = one read or none on drug, '>' = one read or none on a drug-free plate. Shares are relative, so most strains fall below 1 when a few take over. Listed are strains with at least 15 reads on both drug-free plates, and hits; most hits rest on fewer reference reads. Replicate rank correlation about 0.5. Edits are read from barcodes.

Molecular target: Escherichia coli (laboratory strain)
Assay: barcode share on antibiotic plates over drug-free plates; higher = less susceptible
Experimental: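 A pool of E. coli strains, each edited to carry one amino-acid change in an essential protein, was grown for 48 h on minimal glucose agar with or without antibiotic; strain barcodes were sequenced; mean of two replicates.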

[1] = antibiotic: carbenicillin, 2× MIC (3.1 µg/mL)
[2] = antibiotic: gentamicin, 2× MIC (MIC 0.45 µg/mL)

Protein | fold change of barcode share [1] | fold change of barcode share [2]
nrdA L227D (protein) MNQNLLVTKRDGSTERINLDKIHRVLDWAAEGLHNVSISQVELRSHIQFYDGIKTSDIHETIIKAAADLISRDAPDYQYLAARLAIFHLRKKAYGQFEPPALYDHVVKMVEMGKYDNHLLEDYTEEEFKQMDTFIDHDRDMTFSYAAVKQLEGKYLVQNRVTGEIYESAQFLYILVAACLFSNYPRETRLQYVKRFYDAVSTFKISLPTPIMSGVRTPTRQFSSCVDIECGDSLDSINATSSAIVKYVSQRAGIGINAGRIRALGSPIRGGEAFHTGCIPFYKHFQTAVKSCSQGGVRGGAATLFYPMWHLEVESLLVLKNNRGVEGNRVRHMDYGVQINKLMYTRLLKGEDITLFSPSDVPGLYDAFFADQEEFERLYTKYEKDDSIRKQRVKAVELFSLMMQERASTGRIYIQNVDHCNTHSPFDPAIAPVRQSNLCLEIALPTKPLNDVNDENGEIALCTLSAFNLGAINNLDELEELAILAVRALDALLDYQDYPIPAAKRGAMGRRTLGIGVINFAYYLAKHGKRYSDGSANNLTHKTFEAIQYYLLKASNELAKEQGACPWFNETTYAKGILPIDTYKKDLDTIANEPLHYDWEALRESIKTHGLRNSTLSALMPSETSSQISNATNGIEPPRGYVSIKASKDGILRQVVPDYEHLHDAYELLWEMPGNDGYLQLVGIMQKFIDQSISANTNYDPSRFPSGKVPMQQLLKDLLTAYKFGVKTLYYQNTRDGAEDAQDDLVPSIQDDGCESGACKI | 0.103 ± 0.0023 | 0.0234 ± 0.029
aspS F394A (protein) MRTEYCGQLRLSHVGQQVTLCGWVNRRRDLGSLIFIDMRDREGIVQVFFDPDRADALKLASELRNEFCIQVTGTVRARDEKNINRDMATGEIEVLASSLTIINRADVLPLDSNHVNTEEARLKYRYLDLRRPEMAQRLKTRAKITSLVRRFMDDHGFLDIETPMLTKATPEGARDYLVPSRVHKGKFYALPQSPQLFKQLLMMSGFDRYYQIVKCFRDEDLRADRQPEFTQIDVETSFMTAPQVREVMEALVRHLWLEVKGVDLGDFPVMTFAEAERRYGSDKPDLRNPMELTDVADLLKSVEFAVFAGPANDPKGRVAALRVPGGASLTRKQIDEYGNFVKIYGAKGLAYIKVNERAKGLEGINSPVAKFLNAEIIEDILDRTAAQDGDMIFAGADNKKIVADAMGALRLKVGKDLGLTDESKWAPLWVIDFPMFEDDGEGGLTAMHHPFTSPKDMTAAELKAAPENAVANAYDMVINGYEVGGGSVRIHNGDMQQTVFGILGINEEEQREKFGFLLDALKYGTPPHAGLAFGLDRLTMLLTGTDNIRDVIAFPKTTAAACLMTEAPSFANPTALAELSIQVVKKAENN | 0.322 ± 0.11 | 0.0205 ± 0.011
obgE I332A (protein) MKFVDEASILVVAGDGGNGCVSFRREKYIPKGGPDGGDGGDGGDVWMEADENLNTLIDYRFEKSFRAERGQNGASRDCTGKRGKDVTIKVPVGTRVIDQGTGETMGDMTKHGQRLLVAKGGWHGLGNTRFKSSVNRTPRQKTNGTPGDKRELLLELMLLADVGMLGMPNAGKSTFIRAVSAAKPKVADYPFTTLVPSLGVVRMDNEKSFVVADIPGLIEGAAEGAGLGIRFLKHLERCRVLLHLIDIDPIDGTDPVENARIIISELEKYSQDLATKPRWLVFNKIDLLDKVEAEEKAKAIAEALGWEDKYYLISAASGLGVKDLCWDVMTFAIENPVVQAEEAKQPEKVEFMWDDYHRQQLEEIAEEDDEDWDDDWDEDDEEGVEFIYKR | 0.299 ± 0.058 | < 0.00924
obgE I332W (protein) MKFVDEASILVVAGDGGNGCVSFRREKYIPKGGPDGGDGGDGGDVWMEADENLNTLIDYRFEKSFRAERGQNGASRDCTGKRGKDVTIKVPVGTRVIDQGTGETMGDMTKHGQRLLVAKGGWHGLGNTRFKSSVNRTPRQKTNGTPGDKRELLLELMLLADVGMLGMPNAGKSTFIRAVSAAKPKVADYPFTTLVPSLGVVRMDNEKSFVVADIPGLIEGAAEGAGLGIRFLKHLERCRVLLHLIDIDPIDGTDPVENARIIISELEKYSQDLATKPRWLVFNKIDLLDKVEAEEKAKAIAEALGWEDKYYLISAASGLGVKDLCWDVMTFWIENPVVQAEEAKQPEKVEFMWDDYHRQQLEEIAEEDDEDWDDDWDEDDEEGVEFIYKR | 0.295 ± 0.061 | < 0.00865
obgE I332Q (protein) MKFVDEASILVVAGDGGNGCVSFRREKYIPKGGPDGGDGGDGGDVWMEADENLNTLIDYRFEKSFRAERGQNGASRDCTGKRGKDVTIKVPVGTRVIDQGTGETMGDMTKHGQRLLVAKGGWHGLGNTRFKSSVNRTPRQKTNGTPGDKRELLLELMLLADVGMLGMPNAGKSTFIRAVSAAKPKVADYPFTTLVPSLGVVRMDNEKSFVVADIPGLIEGAAEGAGLGIRFLKHLERCRVLLHLIDIDPIDGTDPVENARIIISELEKYSQDLATKPRWLVFNKIDLLDKVEAEEKAKAIAEALGWEDKYYLISAASGLGVKDLCWDVMTFQIENPVVQAEEAKQPEKVEFMWDDYHRQQLEEIAEEDDEDWDDDWDEDDEEGVEFIYKR | 0.563 ± 0.43 | 0.0126 ± 0.0081
obgE I332D (protein) MKFVDEASILVVAGDGGNGCVSFRREKYIPKGGPDGGDGGDGGDVWMEADENLNTLIDYRFEKSFRAERGQNGASRDCTGKRGKDVTIKVPVGTRVIDQGTGETMGDMTKHGQRLLVAKGGWHGLGNTRFKSSVNRTPRQKTNGTPGDKRELLLELMLLADVGMLGMPNAGKSTFIRAVSAAKPKVADYPFTTLVPSLGVVRMDNEKSFVVADIPGLIEGAAEGAGLGIRFLKHLERCRVLLHLIDIDPIDGTDPVENARIIISELEKYSQDLATKPRWLVFNKIDLLDKVEAEEKAKAIAEALGWEDKYYLISAASGLGVKDLCWDVMTFDIENPVVQAEEAKQPEKVEFMWDDYHRQQLEEIAEEDDEDWDDDWDEDDEEGVEFIYKR | 0.409 ± 0.4 | 0.0232 ± 0.0089
obgE I332P (protein) MKFVDEASILVVAGDGGNGCVSFRREKYIPKGGPDGGDGGDGGDVWMEADENLNTLIDYRFEKSFRAERGQNGASRDCTGKRGKDVTIKVPVGTRVIDQGTGETMGDMTKHGQRLLVAKGGWHGLGNTRFKSSVNRTPRQKTNGTPGDKRELLLELMLLADVGMLGMPNAGKSTFIRAVSAAKPKVADYPFTTLVPSLGVVRMDNEKSFVVADIPGLIEGAAEGAGLGIRFLKHLERCRVLLHLIDIDPIDGTDPVENARIIISELEKYSQDLATKPRWLVFNKIDLLDKVEAEEKAKAIAEALGWEDKYYLISAASGLGVKDLCWDVMTFPIENPVVQAEEAKQPEKVEFMWDDYHRQQLEEIAEEDDEDWDDDWDEDDEEGVEFIYKR | 0.3743 ± 0.0027 | 0.0197 ± 0.019
obgE I176A (protein) MKFVDEASILVVAGDGGNGCVSFRREKYIPKGGPDGGDGGDGGDVWMEADENLNTLIDYRFEKSFRAERGQNGASRDCTGKRGKDVTIKVPVGTRVIDQGTGETMGDMTKHGQRLLVAKGGWHGLGNTRFKSSVNRTPRQKTNGTPGDKRELLLELMLLADVGMLGMPNAGKSTFARAVSAAKPKVADYPFTTLVPSLGVVRMDNEKSFVVADIPGLIEGAAEGAGLGIRFLKHLERCRVLLHLIDIDPIDGTDPVENARIIISELEKYSQDLATKPRWLVFNKIDLLDKVEAEEKAKAIAEALGWEDKYYLISAASGLGVKDLCWDVMTFIIENPVVQAEEAKQPEKVEFMWDDYHRQQLEEIAEEDDEDWDDDWDEDDEEGVEFIYKR | 0.365 ± 0.032 | 0.00961 ± 0.012
obgE I176Q (protein) MKFVDEASILVVAGDGGNGCVSFRREKYIPKGGPDGGDGGDGGDVWMEADENLNTLIDYRFEKSFRAERGQNGASRDCTGKRGKDVTIKVPVGTRVIDQGTGETMGDMTKHGQRLLVAKGGWHGLGNTRFKSSVNRTPRQKTNGTPGDKRELLLELMLLADVGMLGMPNAGKSTFQRAVSAAKPKVADYPFTTLVPSLGVVRMDNEKSFVVADIPGLIEGAAEGAGLGIRFLKHLERCRVLLHLIDIDPIDGTDPVENARIIISELEKYSQDLATKPRWLVFNKIDLLDKVEAEEKAKAIAEALGWEDKYYLISAASGLGVKDLCWDVMTFIIENPVVQAEEAKQPEKVEFMWDDYHRQQLEEIAEEDDEDWDDDWDEDDEEGVEFIYKR | 0.366 ± 0.15 | 0.00495 ± 0.004
obgE I176D (protein) MKFVDEASILVVAGDGGNGCVSFRREKYIPKGGPDGGDGGDGGDVWMEADENLNTLIDYRFEKSFRAERGQNGASRDCTGKRGKDVTIKVPVGTRVIDQGTGETMGDMTKHGQRLLVAKGGWHGLGNTRFKSSVNRTPRQKTNGTPGDKRELLLELMLLADVGMLGMPNAGKSTFDRAVSAAKPKVADYPFTTLVPSLGVVRMDNEKSFVVADIPGLIEGAAEGAGLGIRFLKHLERCRVLLHLIDIDPIDGTDPVENARIIISELEKYSQDLATKPRWLVFNKIDLLDKVEAEEKAKAIAEALGWEDKYYLISAASGLGVKDLCWDVMTFIIENPVVQAEEAKQPEKVEFMWDDYHRQQLEEIAEEDDEDWDDDWDEDDEEGVEFIYKR | 0.386 ± 0.059 | 0.00614 ± 0.0036
obgE I176P (protein) MKFVDEASILVVAGDGGNGCVSFRREKYIPKGGPDGGDGGDGGDVWMEADENLNTLIDYRFEKSFRAERGQNGASRDCTGKRGKDVTIKVPVGTRVIDQGTGETMGDMTKHGQRLLVAKGGWHGLGNTRFKSSVNRTPRQKTNGTPGDKRELLLELMLLADVGMLGMPNAGKSTFPRAVSAAKPKVADYPFTTLVPSLGVVRMDNEKSFVVADIPGLIEGAAEGAGLGIRFLKHLERCRVLLHLIDIDPIDGTDPVENARIIISELEKYSQDLATKPRWLVFNKIDLLDKVEAEEKAKAIAEALGWEDKYYLISAASGLGVKDLCWDVMTFIIENPVVQAEEAKQPEKVEFMWDDYHRQQLEEIAEEDDEDWDDDWDEDDEEGVEFIYKR | 0.365 ± 0.064 | 0.00745 ± 0.005
